The values below come from PMC4336329 (PLoS ONE, 2015).

Molecules are shown by their SMILES. Out of some 310,000 compounds screened, about 2,200 (0.71%) showed an effect of 50% or more. The effect is printed as a negative number. Some of the results follow.

In this test the target is human ether-à-go-go-related gene (hERG) potassium channel (human, UniProt Q12809). In words: primary screen, population patch clamp on CHO cells stably expressing hERG.
Sequence of human ether-à-go-go-related gene (hERG) potassium channel (Q12809 whole entry, looked up): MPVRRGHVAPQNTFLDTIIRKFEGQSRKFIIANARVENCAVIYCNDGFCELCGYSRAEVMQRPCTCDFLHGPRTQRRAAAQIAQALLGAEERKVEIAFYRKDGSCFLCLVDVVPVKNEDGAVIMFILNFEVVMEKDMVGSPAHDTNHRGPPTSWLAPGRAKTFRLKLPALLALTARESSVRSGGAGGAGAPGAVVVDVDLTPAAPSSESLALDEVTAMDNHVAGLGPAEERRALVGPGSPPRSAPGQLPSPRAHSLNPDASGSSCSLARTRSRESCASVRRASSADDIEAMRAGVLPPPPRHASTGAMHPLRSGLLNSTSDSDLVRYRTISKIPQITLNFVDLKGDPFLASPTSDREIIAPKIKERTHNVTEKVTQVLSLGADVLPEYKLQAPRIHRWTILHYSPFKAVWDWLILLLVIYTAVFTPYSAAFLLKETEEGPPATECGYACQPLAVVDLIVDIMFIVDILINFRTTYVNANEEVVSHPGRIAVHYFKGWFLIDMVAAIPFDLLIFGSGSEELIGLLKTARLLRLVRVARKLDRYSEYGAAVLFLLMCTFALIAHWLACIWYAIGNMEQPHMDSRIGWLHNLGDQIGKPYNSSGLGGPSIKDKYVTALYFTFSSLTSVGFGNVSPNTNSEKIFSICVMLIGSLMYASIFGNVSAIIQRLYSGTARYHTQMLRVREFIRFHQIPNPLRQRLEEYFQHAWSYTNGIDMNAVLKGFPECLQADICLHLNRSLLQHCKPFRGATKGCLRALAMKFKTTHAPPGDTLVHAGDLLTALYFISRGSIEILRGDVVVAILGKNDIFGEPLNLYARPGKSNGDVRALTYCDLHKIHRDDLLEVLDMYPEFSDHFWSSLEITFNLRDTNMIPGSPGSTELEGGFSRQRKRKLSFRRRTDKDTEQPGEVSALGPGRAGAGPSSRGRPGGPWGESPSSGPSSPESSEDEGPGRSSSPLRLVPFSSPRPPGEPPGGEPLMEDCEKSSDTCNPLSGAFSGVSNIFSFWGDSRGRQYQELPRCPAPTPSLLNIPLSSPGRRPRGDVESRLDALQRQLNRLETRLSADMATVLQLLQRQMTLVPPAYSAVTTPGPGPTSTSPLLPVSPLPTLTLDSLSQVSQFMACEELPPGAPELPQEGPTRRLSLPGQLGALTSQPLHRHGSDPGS
As for `O=C(c1ccc(Cl)c(S(=O)(=O)Nc2ccc(F)cc2)c1)N1CCN(c2ccccn2)CC1`, the “hERG current change (%, negative = inhibition) at 1uM” value was determined as 7.38%. Consider `CC(C)(C)NC(=O)Cn1cc(C#N)c2cc(Br)ccc21`, for which the “hERG current change (%, negative = inhibition) at 1uM” value was 6.59%. Consider `COc1ccc(OCCCC(=O)Nc2cccc(S(=O)(=O)N3CCCCCC3)c2)cc1`, for which the “hERG current change (%, negative = inhibition) at 1uM” value is recorded as 0.212%. Regarding `O=C(Nc1ccc(CN2CCCCC2)cc1)c1c(F)c(F)c(F)c(F)c1F`, the “hERG current change (%, negative = inhibition) at 1uM” value is -3.12%. Then `Cc1ccc(-c2cc(C(=O)NCCc3ccc(S(N)(=O)=O)cc3)c3ccccc3n2)cc1`, with 3.59%. As to `Cc1cc(C)cc(NC(=S)NCC2CCN(C(C)c3ccccc3)C2)c1` (stereo not shown), the “hERG current change (%, negative = inhibition) at 1uM” value is on record as -44.9%. As for `CCOC(=O)c1ccc(N=c2sc(C(=O)OC)cc(=O)n2C2CC2)cc1`, the “hERG current change (%, negative = inhibition) at 1uM” value came out at 7%. Consider `CCc1ccc(C2C3=C(CCCC3=O)OC3=C2C(=O)CCC3)cc1`, for which the “hERG current change (%, negative = inhibition) at 1uM” value is listed as 12%. For the compound `CCOC(=O)c1c(NC(=O)c2nn(CC)cc2Br)c(C#N)nn1-c1ccccc1`, the “hERG current change (%, negative = inhibition) at 1uM” value is reported as 0.735%.

`Cc1c(C2CC(=O)N(c3ccccc3)C2=O)[nH]n(-c2ccccc2)c1=O` (stereo not shown): the “hERG current change (%, negative = inhibition) at 1uM” value was 12.6%. For the compound `COc1ccc(C(=O)c2coc3ccc(O)c(CN4CCOCC4)c23)cc1`, the “hERG current change (%, negative = inhibition) at 1uM” value was determined as 1.63%. As to `CC1/C(=N/O)C(CN(C)C)C2CC1C2(C)C.Cl` (stereo not shown), the “hERG current change (%, negative = inhibition) at 1uM” value came to 13.8%. For the compound `COc1ccc(-n2c(CNC(=O)COc3ccc(Cl)cc3)n[nH]c2=S)cc1`, the “hERG current change (%, negative = inhibition) at 1uM” value stood at 16.9%. Consider `O=S1(=O)CCO[C@H]2Cc3ccccc3[C@H]2N1Cc1cccc(C(F)(F)F)c1`, for which the “hERG current change (%, negative = inhibition) at 1uM” value is listed as 8.71%. For `COc1ccc(C(=O)NCCN2CCOCC2)cc1[N+](=O)[O-]`, the “hERG current change (%, negative = inhibition) at 1uM” value is listed as 11.6%. The figure for `Cn1c(CCNC(=O)c2ccccc2F)nnc1SCC(=O)Nc1ccccc1F` is 6.51%; for `Cl.O=C(CN1CCNCC1)NCCSc1ccc(Cl)cc1` it is -6.87%; for `CCCOc1ccccc1C(=O)N1CCNC(=O)C1CC(=O)OC(C)C` (stereo not shown) it is 9.86%.

Take `O=C1NC[C@H](Cc2ccccc2)N(CC2CCCCC2)C1=O`: the “hERG current change (%, negative = inhibition) at 1uM” value was found to be 8.43%.

Regarding `CC(C)COC(=S)Nc1ccccc1`, the “hERG current change (%, negative = inhibition) at 1uM” value was found to be 7.76%. Then `O=C(OC(C(=O)NC1CCCCC1)c1ccccc1F)c1ccco1` (stereo not shown), with 9.19%; and `CN(C)C(CNC(=O)CCNS(=O)(=O)c1ccccc1C(F)(F)F)c1ccccc1` (stereo not shown), with 8.79%.

Consider `Cc1ccc(C(=O)NCC(=O)N/N=C/c2sccc2C)cc1[N+](=O)[O-]`, for which the “hERG current change (%, negative = inhibition) at 1uM” value is recorded as 8.66%.

With `Cc1ccc(C)c(C(C)NC(=O)C2CCCC2)c1` (stereo not shown), the “hERG current change (%, negative = inhibition) at 1uM” value worked out at 15%. On to `Cc1cc([N+](=O)[O-])nn1CCCC(=O)Nc1ccc(Cl)cc1Cl`, for which the “hERG current change (%, negative = inhibition) at 1uM” value is -4.42%. Then `Cc1ccc(-c2nnn(CC(=O)N(CC(=O)NCC3CCCO3)c3ccc(F)c(Cl)c3)n2)o1` (stereo not shown), with 9.85%; and `COC(=O)CCC(=O)OC1(C)C(=O)C=C2C=C(C3CC3)OC=C2C1=O` (stereo not shown), with 6.53%; and `CC(OC(=O)c1ccncc1)C(=O)Nc1cc(S(=O)(=O)N2CCCCC2)ccc1Cl` (stereo not shown), with -4.36%. Take `CCc1cc2c(=O)n(Cc3ccco3)c(SCC(=O)N3CCCc4ccccc43)nc2s1`: the “hERG current change (%, negative = inhibition) at 1uM” value is reported as 6.32%. The figure for `C=CCN(C(=O)CCC(=O)O)C1CC(=O)N(c2ccc(OCCC)cc2)C1=O` (stereo not shown) is 13.2%; for `CC(=O)NNc1ncnc2ccccc12` it is 11.9%; for `Br.COc1cccc(C(=O)CSc2nccn2C)c1` it is 15.8%. For `O=C(CCC1COc2ccccc2O1)NCC1COc2ccccc2O1` (stereo not shown), the “hERG current change (%, negative = inhibition) at 1uM” value worked out at 6.41%. The figure for `Cc1ccc(C(=O)NCCc2nnc3ccc(N4CCCC4)nn23)cc1` is 15.4%; for `FC(F)(F)c1cccc(NC(=S)NNC(=S)Nc2ccc(Cl)cc2)c1` it is 8.82%. Then `COc1ccc(-c2cc(=O)oc3cc(OCC(=O)N4C[C@H]5C[C@@H](C4)c4cccc(=O)n4C5)ccc23)cc1`, with 1.14%; and `COc1ccc(NC(=O)CSc2nnc(-c3ccccn3)n2Cc2ccco2)cc1OC`, with -11.1%; and `CCOC(=O)/C=C1\SCC(=O)N1CC(=O)Nc1ccc(C(C)C)cc1`, with -7.75%. On to `CCCOc1ccc(CN(C(=O)c2cccc(OC)c2)C2CCS(=O)(=O)C2)cc1` (stereo not shown), for which the “hERG current change (%, negative = inhibition) at 1uM” value stood at 7.65%. Consider `COc1ccccc1NC(=O)c1ccccc1NS(=O)(=O)N1CCCC1`, for which the “hERG current change (%, negative = inhibition) at 1uM” value turned out to be 8.21%. The figure for `Cc1ccc(NC(=S)N(CCN(C)C)Cc2cc3cccc(C)c3[nH]c2=O)cc1` is -29.4%. For the compound `Cc1occc1C(=O)Nc1ccc2c(c1)CCC2`, the “hERG current change (%, negative = inhibition) at 1uM” value is listed as 3.26%. Take `CCN1C[C@]2(CO)CC[C@H](OC)[C@@]34C2[C@H](OC)[C@@](O)(C13)[C@@]1(O)C[C@H](OC)[C@H]2C[C@@H]4[C@@H]1[C@H]2OC`: the “hERG current change (%, negative = inhibition) at 1uM” value is 9.25%.
